According to PubChem BioAssay AID2675 (National Center for Advancing Translational Sciences (NCATS), 2010):
Hit rate of the full screen: of about 280,000 compounds, about 100 (0.036%) were called active. The shares of active, inactive and inconclusive entries below differ from those in the screen. Calls come from the whole dose curve; as a rule, active = well fitted inhibition curve with a large enough effect in the signal ratio, with a control signal flat (not every such curve was filed as active); inconclusive = small, poorly fitted or top-dose-only effect, or effect the other way, or a change in a side signal; inactive = no such curve, though single readings can be large or run the other way; the % refers to the signal ratio. A potency beside an inconclusive call is a rough fit, not a confirmed value. A note “side channel” means that the fit belongs to a control or component signal, not to the main read-out.

Target: Muscleblind-like protein 1 (Homo sapiens) (UniProt Q9NR56)
Chain of UniProt Q9NR56 (Q9NR56 whole entry, looked up): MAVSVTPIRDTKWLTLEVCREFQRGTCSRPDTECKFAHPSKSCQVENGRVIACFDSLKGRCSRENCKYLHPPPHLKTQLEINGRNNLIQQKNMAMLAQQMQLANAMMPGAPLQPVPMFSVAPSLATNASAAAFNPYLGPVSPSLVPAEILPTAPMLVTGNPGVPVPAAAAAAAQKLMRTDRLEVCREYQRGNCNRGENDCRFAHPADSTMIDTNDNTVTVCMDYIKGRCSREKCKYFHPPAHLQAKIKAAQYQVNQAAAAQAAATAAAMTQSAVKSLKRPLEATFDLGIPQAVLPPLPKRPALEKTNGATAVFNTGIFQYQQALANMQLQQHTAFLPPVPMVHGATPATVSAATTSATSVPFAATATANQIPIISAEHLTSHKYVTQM
Assay: qHTS Assay for Inhibitors of MBNL1-poly(CUG) RNA binding
Conditions: TR-FRET MBNL1-His/biotin-(CUG)12 binding, 665/545 ratio; series mostly up to 57.5 µM
How it was run: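 Ratiometric TR-FRET (665 over 545 nm, excitation 340 nm) tracks disruption of MBNL1-His/biotin-(CUG)12 complex after 60 min at room temperature, with compounds at 92 nM to 58 uM final.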
Potency is the fitted concentration of half-maximal effect; tags give direction and shape of the fitted curve or compound fluorescence and quenching.

Q: With `CN(C)c1ccc(CN(Cc2ccco2)C(=O)c2ccco2)cc1` as the compound, how does the Potency read?
A: inactive

Q: `O=C(O)CCN1C(=O)CC(N2C(=O)/C(=C/c3ccc(Cl)cc3)SC2=S)C1=O` (stereo not drawn) was tested. Which Potency did it give?
A: inconclusive: 39.8 µM [quencher, side channel, partial curve, poor fit]

Q: `Cn1c(CCNC(=O)c2ccco2)nc2cc([N+](=O)[O-])ccc21` was tested. Which Potency did it give?
A: inconclusive: 17.8 µM [quencher, side channel, partial curve]

Q: For `O=C(CCN1C(=O)/C(=C/c2ccc(F)cc2)SC1=S)NC1C=CS(=O)(=O)C1` (stereo not drawn), which Potency is on record?
A: inconclusive: 3.55 µM [quencher, side channel, full curve, poor fit]

Q: How did the Potency turn out when `CCOc1ccccc1C(=O)Nc1nnc(COC)s1` was run?
A: inconclusive: 1 µM [fluorescent, side channel, full curve]

Q: For `O=C(N/N=C/c1ccnc2ccccc12)c1ccccc1O`, which Potency is on record?
A: inconclusive: 15.8 µM [quencher, partial curve]

Q: For `COc1ccc2nc3ccccc3nc2c1`, which Potency is on record?
A: inconclusive: 12.6 µM [quencher, side channel, partial curve]

Q: With `C=CCn1c(-c2cccn(Cc3ccc(Cl)cc3)c2=O)n[nH]c1=S` as the compound, how does the Potency read?
A: inactive

Q: `COc1cc(/C=N/NC(=O)c2c(C)nnn2-c2nonc2N)ccc1O` was tested. Which Potency did it give?
A: inconclusive: 79.4 µM [inhibitor, single point]

Q: With `Cc1ccc(NC(=O)CCC(=O)N2CCC(C)CC2)c([N+](=O)[O-])c1` as the compound, how does the Potency read?
A: inconclusive: 14.1 µM [quencher, side channel, partial curve]

Q: For `[O-][n+]1onc2c1CCc1nnc(-c3ccccc3)cc1-2`, which Potency is on record?
A: inconclusive: 6.31 µM [quencher, side channel, partial curve]

Q: With `Cc1cc([N+](=O)[O-])nn1CC(=O)Nc1ccc(Cc2ccncc2)cc1` as the compound, how does the Potency read?
A: inconclusive: 35.5 µM [quencher, side channel, single point]

Q: How did the Potency turn out when `CN1C(=O)C2(c3ccccc31)C1CCCC=C1C(C#N)=C(N)C2(C#N)C#N` (stereo not drawn) was run?
A: inconclusive: 17.8 µM [quencher, side channel, partial curve]

Q: With `CSc1ccc(C(=O)C2CCCN(S(=O)(=O)c3c(C)noc3C)C2)cc1` (stereo not drawn) as the compound, how does the Potency read?
A: inactive

Q: For `O=C(COc1ccc([N+](=O)[O-])cc1)NN=C1CCCC1`, which Potency is on record?
A: inconclusive: 25.1 µM [quencher, side channel, partial curve]

Q: How did the Potency turn out when `COCCCN1C(=O)C(=O)/C(=C(/O)c2ccc3c(c2)CC(C)O3)C1c1cccnc1` (stereo not drawn) was run?
A: inconclusive: 39.8 µM [quencher, single point]

Q: Which Potency does the source give for `CCc1ccc2c(c1)c(N=NC1=NC(=O)CS1)c(O)n2C` here?
A: inconclusive: 11.2 µM [quencher, side channel, partial curve]

Q: With `C/[N+]([O-])=C\c1ccc([N+](=O)[O-])o1` as the compound, how does the Potency read?
A: inconclusive: 14.1 µM [quencher, side channel, partial curve]

Q: How did the Potency turn out when `COc1ccc(/C=C2\CCc3ccccc3C2=O)cc1Cn1nc(C)cc1C` was run?
A: inactive

Q: How did the Potency turn out when `O=C(NCc1ccco1)c1cc(-c2ccncc2)nc2ccccc12` was run?
A: inconclusive: 17.8 µM [quencher, partial curve]

Q: How did the Potency turn out when `O=C(O)c1cc(-c2ccc(Br)s2)nc2ccccc12` was run?
A: inconclusive: 15.8 µM [fluorescent, side channel, partial curve]

Q: `CCCC(CCC(=O)Nc1cc([N+](=O)[O-])ccc1O)C(=O)O` (stereo not drawn) was tested. Which Potency did it give?
A: inconclusive: 11.2 µM [quencher, side channel, partial curve]

Q: How did the Potency turn out when `N#C/C(=C\c1cn[nH]c1-c1ccc(Cl)cc1)C(=O)NCc1ccccc1` was run?
A: inconclusive: 31.6 µM [quencher, side channel, single point]

Q: How did the Potency turn out when `CC(C)C[C@@H]1NC(=O)[C@H](Cc2ccc(O)cc2)NC(=O)[C@H](CCC(N)=O)NC(=O)c2cc([N+](=O)[O-])cc(I)c2NCC[C@@H](C(N)=O)NC1=O` was run?
A: inconclusive: 17.8 µM [quencher, side channel, partial curve]

Q: With `CCCCc1nc2sc3c(=O)n(N)cnc3c2c2c1CCCC2` as the compound, how does the Potency read?
A: inconclusive: 0.251 µM [fluorescent, side channel, partial curve]

Q: Which Potency does the source give for `COc1ccc(-c2ccc(C#N)c(SCC(=O)Nc3sc4c(c3C#N)CCC4)n2)cc1` here?
A: inconclusive: 3.16 µM [fluorescent, side channel, single point]

Q: Which Potency does the source give for `COc1cc(OC)c(C2Oc3nc(SC)nnc3-c3ccccc3N2C(C)=O)cc1OC` (stereo not drawn) here?
A: inconclusive: 15.8 µM [quencher, side channel, partial curve]

Q: `COCCCn1c2nc3ccccc3nc2c2c(=O)n(CC3CCCO3)cnc21` (stereo not drawn) was tested. Which Potency did it give?
A: inconclusive: 2.51 µM [quencher, side channel, full curve]

Q: Which Potency does the source give for `Cc1cc(CCC(=O)O)c(C)cc1CCC(=O)O` here?
A: inactive

Q: For `O=c1[nH]ncc(N/N=C\c2ccncc2)c1Cl`, which Potency is on record?
A: inconclusive: 14.1 µM [quencher, side channel, partial curve]

Q: For `CC1=NN(c2cccc(F)c2)C(=O)/C1=C/c1ccc(N(C)C)cc1`, which Potency is on record?
A: inactive

Q: For `COCCNc1cc(N)c([N+](=O)[O-])cc1[N+](=O)[O-]`, which Potency is on record?
A: inconclusive: 12.6 µM [quencher, side channel, partial curve]

Q: Which Potency does the source give for `COc1ccc(CNCCC(c2ccc(OC(C)C)cc2)c2ccccc2OC)cc1` (stereo not drawn) here?
A: inactive

Q: Which Potency does the source give for `Cc1ccc(N=Nc2c(N)n[nH]c2N)cc1` here?
A: inconclusive: 15.8 µM [quencher, side channel, partial curve]

Q: Which Potency does the source give for `O=C(Nc1cccc(Cl)c1)Nc1nnc(-c2ccncc2)s1` here?
A: inactive

Q: With `N#CC(C#N)=Cc1ccc(-c2ccc(S(=O)(=O)N=C(N)N)cc2)o1` as the compound, how does the Potency read?
A: inconclusive: 15.8 µM [quencher, side channel, partial curve]

Q: Which Potency does the source give for `CC(=O)c1sccc1NC(=O)c1ccccc1C(=O)O` here?
A: inconclusive: 20 µM [fluorescent, side channel, partial curve]

Q: `O=c1[nH]c(-[n+]2ccc3ccccc3c2)c(/C=N/N=C(\[O-])c2ccccc2)s1` was tested. Which Potency did it give?
A: inconclusive: 7.94 µM [quencher, side channel, partial curve]
